# Results: patent CN116478288A
# Experiments:
# [1] = target: 食蟹猴CD47 (on overexpressing CHO-K1 cells) (cynomolgus monkey); assay: flow cytometry, purified antibody 10 ug/ml on CHO-K1 overexpressing cynomolgus CD47
# [2] = target: 人源CD47 (on cells: hCD47-overexpressing CHO-K1; Raji) (human) (UniProt Q08722); assay: flow cytometry, purified antibody 10 ug/ml on CHO-K1 overexpressing human CD47
# [3] = target: 人源CD47 (on cells: hCD47-overexpressing CHO-K1; Raji) (human) (UniProt Q08722); assay: flow cytometry on Raji cells (endogenous human CD47); Blank 58.3
# [4] = target: 人源CD47 (on cells: hCD47-overexpressing CHO-K1; Raji) (human) (UniProt Q08722); assay: flow cytometry on Raji cells, 0.05 ug/ml ID 2 alone, anti-human Fc-APC (Raji alone 1329.3)
# [5] = target: 人源CD47 (on cells: hCD47-overexpressing CHO-K1; Raji) (human) (UniProt Q08722); assay: flow cytometry on Raji cells, 0.05 ug/ml ID 2 with competitor SIRPα at 5 ug/ml, anti-human Fc-APC
# Chain of UniProt Q08722 (Q08722 19-323): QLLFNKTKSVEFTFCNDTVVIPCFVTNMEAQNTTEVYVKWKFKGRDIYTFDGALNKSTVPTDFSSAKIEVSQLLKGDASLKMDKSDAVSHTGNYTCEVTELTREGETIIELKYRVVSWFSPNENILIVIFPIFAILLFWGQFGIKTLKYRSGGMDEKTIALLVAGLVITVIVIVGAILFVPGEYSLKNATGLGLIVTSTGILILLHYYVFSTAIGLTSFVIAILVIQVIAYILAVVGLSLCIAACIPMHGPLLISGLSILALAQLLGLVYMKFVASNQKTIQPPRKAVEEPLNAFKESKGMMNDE
Binder,MFI [1] [MFI],MFI [2] [MFI],MFI [3] [MFI],MFI [4] [MFI],MFI [5] [MFI]
"人源化抗体ID 5 (antibody, human IgG4 S228P, kappa) heavy: QVQLVQSGAEVKKPGASVKVSCKASGYTFTSYWMNWVRQAPGQGLEWMGRIDSSDSETHYNQKFKDRVTMTRDTSTSTVYMELSSLRSEDTAVYYCARQGEGLRRSWFPYWGQGTLVTVSSASTKGPSVFPLAPCSRSTSESTAALGCLVKDYFPEPVTVSWNSGALTSGVHTFPAVLQSSGLYSLSSVVTVPSSSLGTKTYTCNVDHKPSNTKVDKRV[human IgG4 Fc with S228P (EU numbers) omitted] light: DIVMTQSPDSLAVSLGERATINCRASKSVSTSGYSYIHWYQQKPGQPPKLLIYVASNLQSGVPDRFSGSGSGTDFTLTISSVQAEDVAVYYCQHIRELPWTFGQGTKVEIKRTVAAPSVFIFPPSDEQLKSGTASVVCLLNNFYPREAKVQWKVDNALQSGNSQESVTEQDSKDSTYSLSSTLTLSKADYEKHKVYACEVTHQGLSSPVTKSFNRGEC",1460,2140,12300,–,–
"人源化抗体ID 2 (antibody, human IgG4 S228P, kappa) heavy: QVQLVQSGAEVKKPGASVKVSCKASGYTFTSYWMNWVRQAPGQGLEWMGRIDSSDSETHYNQKFKDRVTMTRDTSTSTVYMELSSLRSEDTAVYYCARQGEGLRRSWFPYWGQGTLVTVSSASTKGPSVFPLAPCSRSTSESTAALGCLVKDYFPEPVTVSWNSGALTSGVHTFPAVLQSSGLYSLSSVVTVPSSSLGTKTYTCNVDHKPSNTKVDKRV[human IgG4 Fc with S228P (EU numbers) omitted] light: DIVMTQSPDSLAVSLGERATINCRASKSVSTSGYSYIHWYQQKPGQPPKLLIYVASNLQSGVPDRFSGSGSGTDFTLTISSVQAEDVAVYYCQHIRELPWTFGQGTKLEIKRTVAAPSVFIFPPSDEQLKSGTASVVCLLNNFYPREAKVQWKVDNALQSGNSQESVTEQDSKDSTYSLSSTLTLSKADYEKHKVYACEVTHQGLSSPVTKSFNRGEC",2420,1740,14600,262000,160000
